Results from a collection of fitness landscapes (doi:10.1016/j.celrep.2020.107928).
Over roughly 81,000 sequences, “one-hybrid fitness for binding NBS DNA” has its median near -0.1; the highest 2% begin near 0.36. The list shows a part of the results.

B1: Caulobacter ParB omega fusion; a variant is named by its letters at X, in order, B8GW30 (parent)
chain: MESVVVGEPGMSEGRRGLGRGLSALLGEVDAAPAQAPGEQLGGSREAPIEILQRNPDQPRRTFREEDLEDLSNSIREKGVLQPILVRPSPDTAGEYQIVAGERAWRAAQRAGLKTVPIMVRELDDLAVLEIGIIENVQRADLNVLEEALSYKVLMEKFERTQENIAQTIGKSXSHVANXMRLLXLPDEVQSYLVSGELTAXHARAIAAAADPVALAKQIIEGGLSVRETEALARKAPNLSAGKSKGGRPPRVKDTDTQALESDLSSVLGLDVSIDHRGSTGTLTITYATLEQLDDLCNRLTRGI

Variants of: B1
Experiment: one-hybrid fitness for binding NBS DNA (the Noc-binding site; scaled: cognate 1, non-cognate 0); higher = stronger binding
Details: with NBS DNA site
Outline: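 Bacterial one-hybrid selection in E. coli USO rpoZ- hisB- pyrF- with a HIS3 reporter carrying the site 19 bp from the promoter, screening Caulobacter ParB libraries with four specificity codons randomised (NNS). Cells grew 48 hours at 37°C on M9-minus-histidine plus 0.1 mM IPTG and 5 mM 3-AT. Plasmids before and after selection were Illumina-sequenced, three replicate libraries pooled, and variants under 10 reads dropped. Fitness is the log change in variant-to-wild-type read ratio, rescaled to cognate 1, non-cognate 0.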

Variant | one-hybrid fitness for binding NBS DNA
PRFV | ≤ 0.2
ASES | ≤ 0.2
MMNC | ≤ 0.2
TDRR | ≤ 0.2
RFPR | ≤ 0.2
SNVS | ≤ 0.2
LNNA | ≤ 0.2
HLQW | ≤ 0.2
QYAV | ≤ 0.2
AICA | ≤ 0.2
HILT | ≤ 0.2
GAQA | ≤ 0.2
ARAH | ≤ 0.2
DAIS | ≤ 0.2
EDSW | ≤ 0.2
RLVI | ≤ 0.2
WPIG | ≤ 0.2
DTSW | ≤ 0.2
VPWF | ≤ 0.2
DSYP | ≤ 0.2
AVQF | ≤ 0.2
QESA | ≤ 0.2
GYVT | ≤ 0.2
KTSY | ≤ 0.2
RSDW | ≤ 0.2

Variant | one-hybrid fitness for binding NBS DNA
VWCG | ≤ 0.2
MSVV | ≤ 0.2
EYYR | ≤ 0.2
KNKL | ≤ 0.2
VYNY | ≤ 0.2
DMNF | ≤ 0.2
DQKY | ≤ 0.2
RMYE | ≤ 0.2
RHYD | ≤ 0.2
VQWT | ≤ 0.2
TNTS | ≤ 0.2
CNIL | ≤ 0.2
VASQ | ≤ 0.2
QRPG | ≤ 0.2
RRAC | 0.328
LKKV | ≤ 0.2
TTNG | ≤ 0.2
HASA | ≤ 0.2
IGKL | ≤ 0.2
YDIE | ≤ 0.2
YQYS | ≤ 0.2
RQSD | ≤ 0.2
MVRG | ≤ 0.2
GIPH | ≤ 0.2
WICS | ≤ 0.2

Variant | one-hybrid fitness for binding NBS DNA
MKST | ≤ 0.2
KSFA | ≤ 0.2
HAKI | ≤ 0.2
IPIK | ≤ 0.2
YGEL | ≤ 0.2
MSAM | ≤ 0.2
VANH | ≤ 0.2
LFHF | ≤ 0.2
ATKL | ≤ 0.2
RFAT | ≤ 0.2
FTIM | ≤ 0.2
TPAR | ≤ 0.2
RRWP | ≤ 0.2
HNFG | ≤ 0.2
EHRG | ≤ 0.2
YIAC | ≤ 0.2
SMSV | ≤ 0.2
HNQP | ≤ 0.2
AYHR | ≤ 0.2
TGKS | ≤ 0.2
AQLL | ≤ 0.2
YLVS | ≤ 0.2
YVVV | ≤ 0.2
TKLS | ≤ 0.2
PRDW | ≤ 0.2

Variant | one-hybrid fitness for binding NBS DNA
RKYQ | 0.205
HIKS | ≤ 0.2
NTIL | ≤ 0.2
FHNL | ≤ 0.2
LKPT | ≤ 0.2
HYSA | ≤ 0.2
QIAT | 0.28
NILT | ≤ 0.2
TVPI | ≤ 0.2
NHTT | ≤ 0.2
LIIY | ≤ 0.2
GFKR | ≤ 0.2
VWVG | ≤ 0.2
KAIG | ≤ 0.2
NWTE | ≤ 0.2
PGVI | ≤ 0.2
VARA | ≤ 0.2
PYRF | ≤ 0.2
VARG | ≤ 0.2
GLQL | ≤ 0.2
VCNS | ≤ 0.2
NLGN | ≤ 0.2
REFM | ≤ 0.2
FIST | ≤ 0.2
ISID | ≤ 0.2

Variant | one-hybrid fitness for binding NBS DNA
NVQA | ≤ 0.2
GPVV | ≤ 0.2
RQFR | 0.262
TMLW | ≤ 0.2
ICDW | ≤ 0.2
HQVE | ≤ 0.2
KYTT | ≤ 0.2
DDET | ≤ 0.2
TCRT | ≤ 0.2
ISET | ≤ 0.2
TVSH | ≤ 0.2
YVKS | ≤ 0.2
STKS | ≤ 0.2
TRTM | ≤ 0.2
GKAV | ≤ 0.2
MDMP | ≤ 0.2
GWDG | ≤ 0.2
RAMW | ≤ 0.2
SQRK | ≤ 0.2
YRVL | ≤ 0.2
RMCY | ≤ 0.2
AYPS | ≤ 0.2
DSAC | ≤ 0.2
PHCC | ≤ 0.2
IMRG | ≤ 0.2

Variant | one-hybrid fitness for binding NBS DNA
VELN | ≤ 0.2
CPGV | ≤ 0.2
NDYG | ≤ 0.2
RHNK | ≤ 0.2
QAQK | ≤ 0.2
TENT | ≤ 0.2
DRLM | ≤ 0.2
NSTF | ≤ 0.2
QFTM | ≤ 0.2
IYRR | 0.273
RAHA | ≤ 0.2
YISN | ≤ 0.2
HVAL | ≤ 0.2
HLAT | ≤ 0.2
FTRS | ≤ 0.2
MHNC | ≤ 0.2
GFGM | ≤ 0.2
GICF | ≤ 0.2
RITV | 0.342
GLDE | ≤ 0.2
RTCI | ≤ 0.2
HRNQ | ≤ 0.2
DPKR | ≤ 0.2
DPPL | ≤ 0.2
TMNS | ≤ 0.2

Variant | one-hybrid fitness for binding NBS DNA
VAFW | ≤ 0.2
RRIG | 0.289
NSHL | 0.297
RQMT | 0.352
HHPQ | ≤ 0.2
HFIF | ≤ 0.2
LPAV | ≤ 0.2
KSGV | ≤ 0.2
RGGV | ≤ 0.2
QCKS | 0.711
IQEG | ≤ 0.2
VWQV | ≤ 0.2
YRAL | ≤ 0.2
SEQI | ≤ 0.2
CSFR | ≤ 0.2
SDMC | ≤ 0.2
VLLF | ≤ 0.2
FLKG | ≤ 0.2
CERL | ≤ 0.2
MRLV | ≤ 0.2
LDYS | ≤ 0.2
VVKR | ≤ 0.2
DQMK | ≤ 0.2
TGVV | ≤ 0.2
GRDL | ≤ 0.2

Variant | one-hybrid fitness for binding NBS DNA
PCPW | ≤ 0.2
SQKH | ≤ 0.2
VMIG | ≤ 0.2
PKYA | ≤ 0.2
CCSR | ≤ 0.2
HSVM | ≤ 0.2
SWKG | ≤ 0.2
DVAH | ≤ 0.2
PIQF | ≤ 0.2
EADG | ≤ 0.2
NSQN | ≤ 0.2
RSDC | ≤ 0.2
VFKC | ≤ 0.2
WRHS | ≤ 0.2
LANV | ≤ 0.2
HDMN | ≤ 0.2
QRYR | 0.924
CRSD | ≤ 0.2
FELR | ≤ 0.2
PSKM | ≤ 0.2
